# Data taken from PMC4336329 (PLoS ONE, 2015).
# In all, about 310,000 compounds went through this assay and about 14,000 (4.5%) showed an effect of 50% or more. Effects have a minus sign here. The list shows a part of the results.
# Molecular target: human ether-à-go-go-related gene (hERG) potassium channel (human, UniProt Q12809)
# Test: primary screen, population patch clamp on CHO cells stably expressing hERG
# 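Further: peak tail current of the secondary pulse compared with the same well before compound.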
# Chain of human ether-à-go-go-related gene (hERG) potassium channel (Q12809 whole entry, looked up): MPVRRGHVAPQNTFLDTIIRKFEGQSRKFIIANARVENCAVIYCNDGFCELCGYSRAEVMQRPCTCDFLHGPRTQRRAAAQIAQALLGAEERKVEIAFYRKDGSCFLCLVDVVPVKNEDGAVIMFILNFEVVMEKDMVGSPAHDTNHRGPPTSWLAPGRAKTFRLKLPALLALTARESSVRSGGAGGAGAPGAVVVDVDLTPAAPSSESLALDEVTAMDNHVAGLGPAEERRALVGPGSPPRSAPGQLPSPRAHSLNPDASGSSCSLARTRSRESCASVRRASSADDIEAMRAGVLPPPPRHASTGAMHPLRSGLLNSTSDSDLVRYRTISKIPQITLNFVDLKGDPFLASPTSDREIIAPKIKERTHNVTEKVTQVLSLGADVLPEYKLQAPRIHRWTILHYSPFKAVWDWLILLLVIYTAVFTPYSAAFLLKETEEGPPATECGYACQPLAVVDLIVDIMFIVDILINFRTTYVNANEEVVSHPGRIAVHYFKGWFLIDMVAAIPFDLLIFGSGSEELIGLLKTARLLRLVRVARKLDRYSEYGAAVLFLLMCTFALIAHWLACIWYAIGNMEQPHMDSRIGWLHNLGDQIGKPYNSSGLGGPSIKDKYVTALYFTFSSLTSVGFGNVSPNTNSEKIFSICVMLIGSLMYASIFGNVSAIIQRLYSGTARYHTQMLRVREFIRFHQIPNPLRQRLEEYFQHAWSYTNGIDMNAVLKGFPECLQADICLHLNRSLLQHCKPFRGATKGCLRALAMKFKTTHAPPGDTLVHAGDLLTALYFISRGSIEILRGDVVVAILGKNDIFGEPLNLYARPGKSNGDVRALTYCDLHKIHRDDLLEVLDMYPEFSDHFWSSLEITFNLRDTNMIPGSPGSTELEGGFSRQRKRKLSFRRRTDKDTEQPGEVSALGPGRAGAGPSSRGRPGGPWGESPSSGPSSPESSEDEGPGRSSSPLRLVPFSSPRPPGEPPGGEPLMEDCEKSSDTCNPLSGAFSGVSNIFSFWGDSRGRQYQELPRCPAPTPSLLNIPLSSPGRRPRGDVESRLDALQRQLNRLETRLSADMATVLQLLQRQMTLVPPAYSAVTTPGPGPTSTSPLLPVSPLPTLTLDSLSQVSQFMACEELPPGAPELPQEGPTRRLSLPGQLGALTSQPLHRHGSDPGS
row,SMILES,"hERG current change (%, negative = inhibition) at 10uM [%]"
1,Cc1ccc(S(=O)(=O)N2CCOCC2)cc1NC(=O)CSc1nnnn1C,15.9
2,Cc1cc(/C=C2/NC(=O)NC2=O)c(C)n1-c1ccncc1,-3.2
3,CCCCOc1ccc(-c2nnn(CC(=O)Nc3ncc(CC(=O)OCC)s3)n2)cc1,12.4
4,O=C(O)c1ccc(-n2cccn2)c([N+](=O)[O-])c1,16.2
5,O=C(O)c1cccc(S(=O)(=O)N2Cc3ccccc3C2)c1,-0.612
6,COC(=O)C1=C(c2cc3ccccc3s2)C[C@@H]2CC[C@H]1N2C(=O)NCCO,2.66
7,CCOC(=O)CNC(=O)Nc1ccccc1C(=O)OC,15.1
8,C[C@H](NC(=O)c1ccco1)C(=O)Nc1ccc2c(c1)OCO2,30.7
9,O=C(c1ccc(F)cc1)N1CCCN(c2nc(-c3ccccc3)ns2)CC1,-46.1
10,Cc1cccn2c(=O)c3cc(C(=O)NCCN4CCOCC4)c(=N)n(Cc4cccnc4)c3nc12,-18.4
11,CCc1ccc(NC(=O)c2ccc(NC3=NC4CS(=O)(=O)CC4S3)cc2)cc1 (stereo not shown),5.74
12,CCOC(=O)Nc1ccc2c(COC(=O)c3ccccc3O)cc(=O)oc2c1,-11.6
13,Cc1ccccc1/C=C/C(=O)NCC(=O)N1CCC(N(C)C2CCCCC2C)CC1 (stereo not shown),-72.1
14,COc1ccc(CCNC(=O)CCCCCNC(=O)N2CCn3c2nc2ccccc23)cc1OC,-13.8
15,CN1CCCC(OC(=O)CCCC(=O)OC2CCCN(C)C2)C1.Cl (stereo not shown),2.1
16,CS(=O)(=O)Nc1ccc(S(=O)(=O)NCCc2ccccc2)cc1,-39
17,CCOC(=O)C1=C(C)NC(=O)NC1c1c(O)ccc2ccccc12 (stereo not shown),-3.79
18,Cc1ccc(NC(=O)c2cccs2)cc1NC(=O)c1cccc(F)c1,5.36
19,CCCn1ncc(CN2CCC(Oc3ccc(C(=O)N4CCCC4)cc3)CC2)c1C,-29.2
20,CCOC(=O)c1c(C)oc2c1c(C(c1cccnc1)N1CCCCC1)c(O)c1ccccc12 (stereo not shown),0.873
21,Nc1nc(SCC(=O)C23CC4CC(CC(C4)C2)C3)n[nH]1,3.17
22,Cc1nn(C)c(C)c1S(=O)(=O)N1CCCC(C(=O)NCCc2ccc(Cl)cc2)C1 (stereo not shown),-0.523

row,SMILES,"hERG current change (%, negative = inhibition) at 10uM [%]"
1,COCCN(C(=O)CCN1C(=O)C2CC=CCC2C1=O)c1c(N)n(CC(C)C)c(=O)[nH]c1=O (stereo not shown),6.32
2,CCCCCC(=O)N1CCCC1,16
3,CCO[C@H]1OC(C(=O)N2CCCCCCC2)=C[C@@H](c2ccc(C(F)(F)F)cc2)[C@@H]1CCCO,-50.5
4,NC1(C#Cc2ccc3oc(=O)c(-n4cc(-c5ccsc5)nn4)cc3c2)CCCCC1,-2.85
5,Cc1ccc(C(=O)NC(NC(=S)Nc2ccc(S(N)(=O)=O)cc2)C(Cl)(Cl)Cl)cc1 (stereo not shown),-2.26
6,N=c1c(S(=O)(=O)c2ccc(F)cc2)cc2c(=O)n3ccccc3nc2n1CC1CCCO1 (stereo not shown),-40.8
7,O=C(COC(=O)c1ccco1)NCc1ccc(Cl)cc1,4.21
8,Nc1ccc(-c2nc3ccc(-c4nc5ccccc5o4)cc3[nH]2)cc1,11.7
9,COc1cc(-c2nc(-c3ccccc3)c(-c3ccc(F)cc3)[nH]2)cc2c1OCO2,13.8
10,O=S1(=O)CCC(NC(=S)N2CCCCC2)C1 (stereo not shown),-16.4
11,O=C(COC(=O)C1C2CC3OC(=O)C1C3C2)Nc1cccc(C(F)(F)F)c1 (stereo not shown),-17.6
12,O=C(Cn1nc(-c2ccc(N3CCOCC3)c([N+](=O)[O-])c2)c2ccccc2c1=O)N1CCCCC1,-68.2
13,CCCCN(C(=O)CCSc1ccc(F)cc1)c1c(N)n(Cc2ccccc2)c(=O)[nH]c1=O,5.9
14,N#C/C(=C1/CCCN1)c1ccccn1,0.0836
15,CCN(CC)C(=O)CSc1nc(-c2ccccc2)cc(=O)[nH]1,3.34
16,Cn1c(CSc2ncccn2)nnc1SCC(=O)N1CCCc2ccccc21,2.95
17,Cl.Fc1ccc(C(OCCN2CCN(CCCc3ccccc3)CC2)c2ccc(F)cc2)cc1,-77.4
18,Cc1nnc(N/N=C/c2c(Cl)cccc2Cl)n1N.Cl,4.09
19,CCc1cccc(CC)c1-n1c(SCc2cc(=O)n3ccsc3n2)nnc1-c1cccnc1,-27.2
20,C=CCN1C(=O)/C(=C\C(C)=C\c2ccccc2)SC1=S,11.8
21,Cc1ccc(/C=C2/Sc3ccc(C(=O)N4CCN(c5ccccn5)CC4)cc3NC2=O)cc1,2.67
